No constants are given. Whether binding was seen depends on the method and setting. Some entries that bind do so weakly or less than the wild type.
Experiments:
Experiment in all cases: binding of fluorescently labelled peptide to transfected cells, plate fluorescence scan; 10 nM myr-preS1-Al633 peptide in DMEM, 20 min, 37°C, on NTCP/Ntcp-transfected HEK293 cells in 24-well plates; washed with DMEM 2 min at 37°C; plates scanned at room temperature (Typhoon FLA 7000, 633 nm), total signal per area; only the binder purified
[1] = target: T1, Chlorocebus aethiops (grivet) Ntcp R158G (Chlorocebus aethiops)
T1 sequence: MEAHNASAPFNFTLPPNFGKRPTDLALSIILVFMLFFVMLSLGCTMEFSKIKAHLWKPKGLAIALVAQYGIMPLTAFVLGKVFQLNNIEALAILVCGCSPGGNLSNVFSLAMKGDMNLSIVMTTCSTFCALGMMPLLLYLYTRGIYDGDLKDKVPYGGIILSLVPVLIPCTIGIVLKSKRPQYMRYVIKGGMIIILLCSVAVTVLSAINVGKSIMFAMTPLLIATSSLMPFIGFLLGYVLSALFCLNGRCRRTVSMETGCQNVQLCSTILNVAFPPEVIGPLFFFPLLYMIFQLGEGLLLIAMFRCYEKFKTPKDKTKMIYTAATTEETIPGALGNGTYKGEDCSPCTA

[2] = target: Papio hamadryas (hamadryas baboon) Ntcp R158G (Papio hamadryas)
human NTCP G158N (human) = target: T2, human NTCP G158N (human) (UniProt Q14973)
T2 sequence: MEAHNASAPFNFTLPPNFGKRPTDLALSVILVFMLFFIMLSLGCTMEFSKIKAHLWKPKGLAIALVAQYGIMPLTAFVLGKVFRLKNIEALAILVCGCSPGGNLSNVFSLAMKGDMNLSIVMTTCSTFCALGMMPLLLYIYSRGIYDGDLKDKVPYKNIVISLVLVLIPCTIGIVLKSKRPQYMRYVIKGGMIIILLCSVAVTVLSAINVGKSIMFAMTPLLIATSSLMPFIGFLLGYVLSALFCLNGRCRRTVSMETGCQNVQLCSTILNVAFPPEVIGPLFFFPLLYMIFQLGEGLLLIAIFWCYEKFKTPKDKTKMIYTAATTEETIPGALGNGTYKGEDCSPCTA

HBV myr-preS1-Al633-peptide (from UniProt P03138 2-48)
binding [1]: binds
binding [2]: binds
binding (human NTCP G158N (human)): no binding (tested: 10 nM)

Reference: article PMC6005513
